# Source: the supplement of paper PMC11417369
# This is one part of the list.
# System: PfSIP2 AP2 domain 1 (GST-tagged)
# Assay: gcPBM binding intensity (ln(normalized median fluorescence intensity)); higher = stronger DNA binding
# Procedure, shortened: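 An Agilent 4 × 180k array of primer-extended double-stranded 36-bp intergenic genomic probes, with negative controls, was incubated for 1 h with GST-tagged P. falciparum DNA-binding domains expressed in E. coli. Alexa488 anti-GST antibody detected bound protein, scanned at 488 nm. Binding intensity is the highest Masliner-normalised natural-log median intensity across replicate spots of either probe orientation.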
row,Sequence,gcPBM binding intensity (ln)
1,TAGAATAATCTATAAACACACAAACACAACAAAAGA [CACACA_site7861],7.4
2,AGATATTTTATAATTACACACATGAGGTTATTTGAA [CACACA_site1999],6.98
3,TTATAAAAATAATATCGTACAAATGACATAGATGAA [XGTACX_site2570],7.01
4,CATATACATAAACACACACACACATAAATAAATATA [CACACA_site4864],7.2
5,TATAGGTATATATAAGTGCAATATATATGTATATAC [GTGCAC_site9427],7.76
6,GAAAAGCAGATAAATGTGCACATATATGTTTGTATA,8.45
7,TATTATTTTTTAAATTGTACAATAAATTATAAAAGG [XGTACX_site1162],7.29
8,ACATAAAATTGTTAAAAAATTGTATAAATAATACAT [XGTACX_negctrl_site557],6.81
9,CAGCTCTTAAAAATTACACACATATACTCATATATA [CACACA_site5757],6.72
10,GGTCTTTTCAACACACGTACATAAAAATATTATACA [XGTACX_site5360],8.05
11,TATATATTGATATGCACACCTATGTATTGATGTATA [CACACA_site1073],8.97
12,AATAATAATAAATATACACACATCATACAATTAACA [CACACA_site3679],7.03
13,TATTTTTTTCTTACTACACACATATAGATGCTTTCC [CACACA_site7825],6.98
14,ACATAAATTTAATACACACACAAAGAAAAAAAAAAA [CACACA_site4088],7.02
15,TAATATAATATATATACACACAAGAAATACAAAACG [CACACA_site1378],7.65
16,ATATTATTATAATATACATATATATATATAATATAT [CACACA_negctrl_site480],7.33
17,TATATATATAATTAAAGTACATATAACCACAAAAAT [XGTACX_site7289],7.78
18,AACAGATATATATGTAGTACATGTTCTAGATATTTT [XGTACX_site1208],7.07
19,AATAATTGTTAAAGGTGTACAATACGTATGTAAGAA [XGTACX_site1328],7.68
20,AATATAAACATAGATAGATAAATAAATAAATAAACA [GTGCAC_negctrl_site567],7.01
21,TATCATTTTGTATATAGTACATATATAAAATCGTTA [XGTACX_site3875],6.94
22,AAAAAAAATAAAAATAAAAATAAAAATAAAAATAAA [GTGCAC_negctrl_site437],6.72
23,CAAGCACCCAGACACACACACACACCCACACCCACA [CACACA_site369],8.12
24,ATAAAAATAACATATAAACACACATATATATATATA [CACACA_site9267],9.45
25,AGTCATTAAATATAATGTACATGGAAAAACAGCTGA [XGTACX_site7944],7.03
